Assay results taken from the supplement of paper PMC3724861.
Some of the results follow.

Test system: T1, Caupolican (Caup) homeodomain DNA-binding domain
T1 sequence: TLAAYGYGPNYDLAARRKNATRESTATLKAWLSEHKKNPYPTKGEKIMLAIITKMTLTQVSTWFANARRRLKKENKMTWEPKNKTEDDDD
Assay: PBM E-score (8-mer, recovered from the published 9-mer minima) (E-score (dimensionless, -0.5 to 0.5)); Drosophila protein; higher = stronger relative binding preference, active = 0.31 or more
Method in brief: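 Caup's homeodomain DNA-binding domain (residues 214-303) was produced by in vitro transcription and translation and applied at 100 nM to custom-designed protein binding microarrays. Each value is an enrichment score giving relative binding preference for a short DNA word; higher means stronger. Published 9-mer scores were the minimum of their two constituent 8-mer scores, and the 8-mer values were recovered from those minima. A cutoff of 0.31 marks candidate binding sequences.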

Row | Sequence | PBM E-score
1 | GCTGCACC | inactive: -0.174
2 | CGTTCGGC | inactive: -0.137
3 | ATCGACAT | inactive: 0.294
4 | CGGTTTTC | inactive: -0.0481
5 | ATGTAGGA | inactive: 0.187
6 | AGTATATC | inactive: 0.112
7 | AAAAGAGC | inactive: -0.055
8 | CGTAACTA | inactive: 0.111
9 | ATCATACC | inactive: 0.108
10 | GAAGGCGA | inactive: -0.199
11 | GTTATGCA | inactive: 0.033
12 | ATTATCTA | ≥ 0.163
13 | AAAAAACA | inactive: 0.21
14 | ACCCGGAC | inactive: -0.125
15 | GACATGTC | active: 0.437
16 | GGATCCGA | inactive: -0.119
17 | GGCTACCC | inactive: -0.239
18 | CCTGAGAA | inactive: 0.0467
19 | TCAGTCGA | inactive: 0.00191
20 | AAGAAACG | inactive: 0.022
21 | CCCGTGTA | inactive: 0.25
22 | AGTTGTTG | inactive: 0.183
23 | CCTGCCTA | inactive: -0.0608

Row | Sequence | PBM E-score
24 | CAGAGCGG | inactive: -0.155
25 | ATATACTA | inactive: 0.183
26 | CGAGCCAA | inactive: -0.0569
27 | CCACGGAC | inactive: -0.139
28 | GTCGCCTA | inactive: -0.16
29 | AGCGAGCA | inactive: -0.0559
30 | AATACGCA | inactive: 0.0736
31 | ACGCGGGC | inactive: -0.174
32 | AGGTATTC | inactive: 0.0546
33 | ACACCAGG | inactive: 0.0474
34 | CTCGCTCC | inactive: -0.194
35 | AAATCAAC | inactive: 0.0931
36 | ACGTCACC | inactive: -0.0492
37 | CGATAATC | inactive: -0.0505
38 | ATGTCCAC | inactive: 0.222
39 | GACCGTAC | inactive: 0.04
40 | CACTGAAA | inactive: 0.0226
41 | CAAGTCCC | inactive: -0.072
42 | GTGGGACA | inactive: 0.116
43 | CTAGGCCC | inactive: -0.184
44 | CATAGCCA | inactive: -0.0493
45 | AGTCGCTA | inactive: 0.0418
46 | GATTACAC | active: 0.318

Row | Sequence | PBM E-score
47 | ATATTATC | inactive: 0.176
48 | ACCTTCAC | inactive: 0.0228
49 | GCAAGGGA | inactive: -0.118
50 | AGCGGGTG | inactive: -0.171
51 | GGACACGA | inactive: 0.23
52 | GGGTTTGA | inactive: -0.032
53 | GTGTGTCA | active: ≥ 0.312
54 | ATTTCGGA | inactive: 0.0085
55 | AGGGCTGC | inactive: -0.264
56 | GAAACCCC | inactive: -0.174
57 | CATCAGAA | inactive: 0.146
58 | ACCGGACT | inactive: -0.166
59 | CAGCGATG | inactive: -0.072
60 | GAGCCAAC | inactive: -0.122
61 | GAGTTGAC | inactive: 0.0345
62 | CAGTCCTA | ≥ 0.0649
63 | AGCAAGAA | inactive: 0.027
64 | AGTTCCCG | inactive: -0.15
65 | CGCTTCCG | inactive: -0.177
66 | AACTAGGC | inactive: -0.0263
67 | GTCTGCAC | inactive: -0.0441
68 | TAGCTGAA | inactive: 0.0122
69 | ATGGCCTG | inactive: -0.0675

Row | Sequence | PBM E-score
70 | AAAGAGCC | inactive: -0.195
71 | CTTTGCTC | inactive: -0.0311
72 | AGCTTAAG | inactive: -0.0765
73 | ATGAGATG | inactive: 0.069
74 | ACATCACG | inactive: 0.217
75 | ACCGCCCC | inactive: -0.199
76 | TACACTAA | inactive: 0.198
77 | GCTATATA | inactive: 0.151
78 | CGATCAAC | inactive: 0.047
79 | CCCCGCTC | inactive: -0.249
80 | ACGGTCCA | inactive: -0.112
81 | CGGTATTA | inactive: 0.034
82 | GAACGTCA | inactive: -0.0664
83 | GGAAGAGA | inactive: -0.0897
84 | CCGCCAGC | inactive: -0.217
85 | AGGATGAC | inactive: -0.011
86 | ATGGTCGA | inactive: 0.00221
87 | ACAGATGG | inactive: 0.0732
88 | GGAGACTA | inactive: -0.0327
89 | ATTGAGTA | ≥ 0.139
90 | CAGAAGGC | inactive: -0.142
91 | CGAAATGA | inactive: 0.046
92 | CCGGGAGG | inactive: -0.219

Row | Sequence | PBM E-score
93 | AGACAGAA | inactive: 0.0455
94 | CTGTTGGA | inactive: 0.0269
95 | GATATGGC | inactive: -0.0691
96 | ATTTCATG | inactive: 0.114
97 | AGCGGGAT | inactive: -0.131
98 | ATATCGCA | inactive: 0.0425
99 | AAGGACCA | inactive: -0.113
100 | ACTCTGGC | inactive: -0.189
101 | AATATTAC | inactive: 0.288
102 | ATAAAATG | inactive: 0.179
103 | CGTGGTCA | inactive: 0.0012
104 | GAACCGAC | inactive: -0.072
105 | CGGATAAC | inactive: 0.044
106 | CAGTATCC | inactive: 0.0462
107 | CTCCCTAC | inactive: -0.049
108 | GGGCGCAC | inactive: -0.277
109 | ACTTCGAA | inactive: -0.0186
110 | ATTGACGC | inactive: 0.00131
111 | AGAGTCAT | inactive: 0.031
112 | AGCGTCAA | inactive: -0.0071
113 | GCGCGTTA | inactive: -0.0378
